Measurements taken from patent US11000038B2, “Pyridone compounds and agricultural and horticultural fungicides containing the same as active ingredients” (priority 2017, dated 2021).

What was measured:
[1] = test system: wheat brown rust fungi (Puccinia recondita); experiment: Test Example E: wheat brown rust, spray treatment of wheat plants; type: in vivo; conditions: spray treatment of wheat plants; for Test E control value class (wheat brown rust): control value=100{1-(n/3)}
[2] = test system: barley powdery mildew fungi (Blumeria graminis f. sp. hordei); experiment: Test Example D: barley powdery mildew, spray treatment of barley plants; conditions: spray treatment of barley plants; for Test D control value class (barley powdery mildew): control value=100{1-(n/3)}
[3] = test system: grape downy mildew fungus (Plasmopara viticola); experiment: Test Example G: grape downy mildew, spray treatment of grape plants; conditions: for Test G control value class (grape downy mildew): 250 ppm spray, 2.5 ml/pot, grape Neomuscat, 7 to 10 days from inoculation
[4] = test system: cabbage Alternaria sooty spot fungi (Alternaia brassicicola); experiment: Test Example C: cabbage Alternaria sooty spot, spray treatment of cabbage plants; type: in vivo; conditions: spray treatment of cabbage plants; for Test C control value class (cabbage Alternaria sooty spot): control value=100{1-(n/3)}
Source text: [Test Example C] Cabbage Alternaria Sooty Spot
Test plants (cabbage variety: Shikidori) were cultivated until the cotyledons extended after the sowing of seeds.
<Control Value> Control value=100{1−(n/3)}

[5] = test system: gray mold fungi (Botrytis cinerea); experiment: Test Example B: tomato gray mold, spray treatment of tomato plants; conditions: spray treatment of tomato plants; for Test B control value class (tomato gray mold): control value=100{1-(n/3)}

SMILES: CC1CCCCC1n1cc(Br)c(=O)c(Br)c1-c1c(F)cc(F)cc1F (centres unmarked) [Compound 160]
- Test E control value class (wheat brown rust) [1]: H (H shows the control value of more than 50%)
- Test D control value class (barley powdery mildew) [2]: L (L shows the control value of 50% or less)
- Test G control value class (grape downy mildew) [3]: L (L shows the control value of 50% or less)
- Test C control value class (cabbage Alternaria sooty spot) [4]: H (H shows the control value of more than 50%)
- Test B control value class (tomato gray mold) [5]: H (H shows the control value of more than 50%)

SMILES: O=c1c(Cl)cn(CC(F)F)c(-c2c(F)cc(F)cc2F)c1Br [Compound 161]
- Test E control value class (wheat brown rust) [1]: H (H shows the control value of more than 50%)
- Test D control value class (barley powdery mildew) [2]: L (L shows the control value of 50% or less)
- Test G control value class (grape downy mildew) [3]: L (L shows the control value of 50% or less)
- Test C control value class (cabbage Alternaria sooty spot) [4]: H (H shows the control value of more than 50%)
- Test B control value class (tomato gray mold) [5]: H (H shows the control value of more than 50%)

SMILES: Cc1cccc(-n2cc(Br)c(=O)c(Cl)c2-c2c(F)cc(F)cc2F)c1C [Compound 163]
- Test E control value class (wheat brown rust) [1]: H (H shows the control value of more than 50%)
- Test D control value class (barley powdery mildew) [2]: H (H shows the control value of more than 50%)
- Test G control value class (grape downy mildew) [3]: H (H shows the control value of more than 50%)
- Test C control value class (cabbage Alternaria sooty spot) [4]: H (H shows the control value of more than 50%)
- Test B control value class (tomato gray mold) [5]: H (H shows the control value of more than 50%)

SMILES: CCC(C)Cn1cc(Cl)c(=O)c(Br)c1-c1c(F)cc(F)cc1F (centres unmarked) [Compound 165]
- Test E control value class (wheat brown rust) [1]: H (H shows the control value of more than 50%)
- Test D control value class (barley powdery mildew) [2]: H (H shows the control value of more than 50%)
- Test G control value class (grape downy mildew) [3]: H (H shows the control value of more than 50%)
- Test C control value class (cabbage Alternaria sooty spot) [4]: H (H shows the control value of more than 50%)
- Test B control value class (tomato gray mold) [5]: H (H shows the control value of more than 50%)

SMILES: CCC(C)Cn1cc(Br)c(=O)c(Cl)c1-c1c(F)cc(F)cc1F (centres unmarked) [Compound 166]
- Test E control value class (wheat brown rust) [1]: H (H shows the control value of more than 50%)
- Test D control value class (barley powdery mildew) [2]: H (H shows the control value of more than 50%)
- Test G control value class (grape downy mildew) [3]: H (H shows the control value of more than 50%)
- Test C control value class (cabbage Alternaria sooty spot) [4]: H (H shows the control value of more than 50%)
- Test B control value class (tomato gray mold) [5]: H (H shows the control value of more than 50%)

SMILES: CCC(C)Cn1cc(Br)c(=O)c(Br)c1-c1c(F)cc(F)cc1F (centres unmarked) [Compound 167]
- Test E control value class (wheat brown rust) [1]: H (H shows the control value of more than 50%)
- Test D control value class (barley powdery mildew) [2]: H (H shows the control value of more than 50%)
- Test G control value class (grape downy mildew) [3]: H (H shows the control value of more than 50%)
- Test C control value class (cabbage Alternaria sooty spot) [4]: H (H shows the control value of more than 50%)
- Test B control value class (tomato gray mold) [5]: H (H shows the control value of more than 50%)

SMILES: CCC(C)Cn1cc(Br)c(=O)c(Cl)c1-c1c(F)cc(OC)cc1F (centres unmarked) [Compound 169]
- Test E control value class (wheat brown rust) [1]: H (H shows the control value of more than 50%)
- Test D control value class (barley powdery mildew) [2]: L (L shows the control value of 50% or less)
- Test G control value class (grape downy mildew) [3]: H (H shows the control value of more than 50%)
- Test C control value class (cabbage Alternaria sooty spot) [4]: H (H shows the control value of more than 50%)
- Test B control value class (tomato gray mold) [5]: H (H shows the control value of more than 50%)

SMILES: COc1cc(F)c(-c2c(Br)c(=O)c(Cl)cn2C2CCCCC2C)c(F)c1 (centres unmarked) [Compound 170]
- Test E control value class (wheat brown rust) [1]: H (H shows the control value of more than 50%)
- Test D control value class (barley powdery mildew) [2]: L (L shows the control value of 50% or less)
- Test G control value class (grape downy mildew) [3]: L (L shows the control value of 50% or less)
- Test C control value class (cabbage Alternaria sooty spot) [4]: H (H shows the control value of more than 50%)
- Test B control value class (tomato gray mold) [5]: H (H shows the control value of more than 50%)

SMILES: COc1cc(F)c(-c2c(Cl)c(=O)c(Br)cn2C2CCCCC2C)c(F)c1 (centres unmarked) [Compound 171]
- Test E control value class (wheat brown rust) [1]: H (H shows the control value of more than 50%)
- Test D control value class (barley powdery mildew) [2]: L (L shows the control value of 50% or less)
- Test G control value class (grape downy mildew) [3]: L (L shows the control value of 50% or less)
- Test C control value class (cabbage Alternaria sooty spot) [4]: H (H shows the control value of more than 50%)
- Test B control value class (tomato gray mold) [5]: H (H shows the control value of more than 50%)

SMILES: Cc1cccc(-n2cc(Cl)c(=O)c(Br)c2-c2c(F)cc(F)cc2F)c1C [Compound 172]
- Test E control value class (wheat brown rust) [1]: H (H shows the control value of more than 50%)
- Test D control value class (barley powdery mildew) [2]: H (H shows the control value of more than 50%)
- Test G control value class (grape downy mildew) [3]: L (L shows the control value of 50% or less)
- Test C control value class (cabbage Alternaria sooty spot) [4]: H (H shows the control value of more than 50%)
- Test B control value class (tomato gray mold) [5]: H (H shows the control value of more than 50%)

SMILES: Cc1cccc(-n2cc(Cl)c(=O)c(Cl)c2-c2c(F)cc(F)cc2F)c1C [Compound 173]
- Test E control value class (wheat brown rust) [1]: H (H shows the control value of more than 50%)
- Test D control value class (barley powdery mildew) [2]: H (H shows the control value of more than 50%)
- Test G control value class (grape downy mildew) [3]: L (L shows the control value of 50% or less)
- Test C control value class (cabbage Alternaria sooty spot) [4]: H (H shows the control value of more than 50%)
- Test B control value class (tomato gray mold) [5]: H (H shows the control value of more than 50%)

SMILES: CCOc1cc(F)c(-c2c(C)c(=O)c(C)cn2-c2ccccc2C)c(F)c1 [Compound 176]
- Test E control value class (wheat brown rust) [1]: H (H shows the control value of more than 50%)
- Test D control value class (barley powdery mildew) [2]: H (H shows the control value of more than 50%)
- Test G control value class (grape downy mildew) [3]: H (H shows the control value of more than 50%)
- Test C control value class (cabbage Alternaria sooty spot) [4]: H (H shows the control value of more than 50%)
- Test B control value class (tomato gray mold) [5]: H (H shows the control value of more than 50%)

SMILES: Cc1ccc(F)cc1-n1cc(Br)c(=O)c(Cl)c1-c1c(F)cc(F)cc1F [Compound 177]
- Test E control value class (wheat brown rust) [1]: H (H shows the control value of more than 50%)
- Test D control value class (barley powdery mildew) [2]: L (L shows the control value of 50% or less)
- Test G control value class (grape downy mildew) [3]: L (L shows the control value of 50% or less)
- Test C control value class (cabbage Alternaria sooty spot) [4]: H (H shows the control value of more than 50%)
- Test B control value class (tomato gray mold) [5]: H (H shows the control value of more than 50%)

SMILES: Cc1ccc(F)cc1-n1cc(Br)c(=O)c(Br)c1-c1c(F)cc(F)cc1F [Compound 178]
- Test E control value class (wheat brown rust) [1]: H (H shows the control value of more than 50%)
- Test D control value class (barley powdery mildew) [2]: L (L shows the control value of 50% or less)
- Test G control value class (grape downy mildew) [3]: H (H shows the control value of more than 50%)
- Test C control value class (cabbage Alternaria sooty spot) [4]: H (H shows the control value of more than 50%)
- Test B control value class (tomato gray mold) [5]: H (H shows the control value of more than 50%)

SMILES: Cc1ccc(F)cc1-n1cc(Cl)c(=O)c(Br)c1-c1c(F)cc(F)cc1F [Compound 179]
- Test E control value class (wheat brown rust) [1]: H (H shows the control value of more than 50%)
- Test D control value class (barley powdery mildew) [2]: H (H shows the control value of more than 50%)
- Test G control value class (grape downy mildew) [3]: L (L shows the control value of 50% or less)
- Test C control value class (cabbage Alternaria sooty spot) [4]: H (H shows the control value of more than 50%)
- Test B control value class (tomato gray mold) [5]: H (H shows the control value of more than 50%)

SMILES: COc1cc(F)c(-c2c(Cl)c(=O)c(Br)cn2-c2ccccc2C)c(F)c1 [Compound 181]
- Test E control value class (wheat brown rust) [1]: H (H shows the control value of more than 50%)
- Test D control value class (barley powdery mildew) [2]: H (H shows the control value of more than 50%)
- Test G control value class (grape downy mildew) [3]: L (L shows the control value of 50% or less)
- Test C control value class (cabbage Alternaria sooty spot) [4]: H (H shows the control value of more than 50%)
- Test B control value class (tomato gray mold) [5]: H (H shows the control value of more than 50%)

SMILES: Cc1ccccc1-n1cc(C(F)(F)F)c(=O)c(Cl)c1-c1c(F)cc(F)cc1F [Compound 182]
- Test E control value class (wheat brown rust) [1]: H (H shows the control value of more than 50%)
- Test D control value class (barley powdery mildew) [2]: H (H shows the control value of more than 50%)
- Test G control value class (grape downy mildew) [3]: L (L shows the control value of 50% or less)
- Test C control value class (cabbage Alternaria sooty spot) [4]: L (L shows the control value of 50% or less)
- Test B control value class (tomato gray mold) [5]: H (H shows the control value of more than 50%)

SMILES: Cc1ccccc1-n1cc(C(F)(F)F)c(=O)c(C)c1-c1c(F)cc(F)cc1F [Compound 184]
- Test E control value class (wheat brown rust) [1]: H (H shows the control value of more than 50%)
- Test D control value class (barley powdery mildew) [2]: H (H shows the control value of more than 50%)
- Test G control value class (grape downy mildew) [3]: L (L shows the control value of 50% or less)
- Test C control value class (cabbage Alternaria sooty spot) [4]: L (L shows the control value of 50% or less)
- Test B control value class (tomato gray mold) [5]: H (H shows the control value of more than 50%)

SMILES: Cc1c(F)cccc1-n1cc(Br)c(=O)c(Br)c1-c1c(F)cc(F)cc1F [Compound 186]
- Test E control value ([1]; wheat brown rust): H (H shows the control value of more than 50%)
- Test D control value ([2]; barley powdery mildew): H (H shows the control value of more than 50%)
- Test G control value ([3]; grape downy mildew, 250 ppm spray (2.5 ml/pot), 7 to 10 days after inoculation): L (L shows the control value of 50% or less)
- Test C control value ([4]; cabbage Alternaria sooty spot): H (H shows the control value of more than 50%)
- Test B control value ([5]; tomato gray mold): H (H shows the control value of more than 50%)
